Measurements from the BET-seq Pho4 binding data (Le et al. 2018).
The other results are listed elsewhere or left out. The energies were worked out here from pooled read counts, against the library average; single values are noisy.

target: T1, Pho4 (S. cerevisiae) (UniProt P07270); assay: relative binding free energy (BET-seq); higher = weaker binding; conditions: reference: library average
T1 sequence: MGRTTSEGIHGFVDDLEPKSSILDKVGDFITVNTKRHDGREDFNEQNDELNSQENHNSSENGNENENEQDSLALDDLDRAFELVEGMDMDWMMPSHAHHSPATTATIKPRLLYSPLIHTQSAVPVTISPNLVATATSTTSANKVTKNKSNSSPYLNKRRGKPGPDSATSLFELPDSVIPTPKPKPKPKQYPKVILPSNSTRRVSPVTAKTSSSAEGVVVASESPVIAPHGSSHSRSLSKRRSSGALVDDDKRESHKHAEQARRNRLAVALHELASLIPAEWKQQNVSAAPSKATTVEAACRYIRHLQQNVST

Sequence	relative binding free energy [kcal/mol]
GGTATCACGTGAGAGT	0.51
TCTTTCACGTGGGGAT	0.17
TAAGTCACGTGGTCGG	-0.21
GAACTCACGTGTGGTG	0.19
CAATTCACGTGGTTGG	0.18
TTTTTCACGTGTAACG	0.35
TTTAGCACGTGTGTTG	0.02
CATGTCACGTGGCAGT	0.07
AGTCACACGTGTAGGT	0.03
TTGCACACGTGGATGG	-0.14
CTTGACACGTGGGGGG	-0.2
GAGTGCACGTGATGTC	0.34
GTTATCACGTGGCGTT	0.16
AGTAGCACGTGAACGT	0.23
ATGCGCACGTGTTTGT	-0.2
TGCAACACGTGGTTTA	0.16
GAGTACACGTGCTGTG	0.05
TGGTGCACGTGCATAA	-0.12
GTAGTCACGTGTGTCT	0.19
AATGACACGTGTATGT	-0.11
GGTGTCACGTGACGGG	0.28
TGGGTCACGTGTGGTA	0.23
CGTGGCACGTGGAGTT	0

Sequence	relative binding free energy [kcal/mol]
TGGTGCACGTGAGACA	0.21
TTCAGCACGTGAGAGT	0.23
ACTTTCACGTGTTTAT	0.25
TTGCGCACGTGAATGG	0.22
TAGGTCACGTGAACGT	0.2
AGTGCCACGTGTTTAT	-0.1
GGTTTCACGTGGAACT	0.33
AAGGGCACGTGATAAT	0.03
TTCAACACGTGGGGTG	-0.18
GTTCGCACGTGATGGA	0.18
GTTGTCACGTGTTAAG	0.22
GGCTTCACGTGCTTTG	0.21
TGATTCACGTGGCAAG	0.29
AAGAACACGTGGGTTT	-0.08
AGCAACACGTGTGGAG	0.18
TCGGGCACGTGACGTG	0.03
GTTAGCACGTGTCTGA	-0.02
TTCGGCACGTGGGCAG	-0.33
GAAGCCACGTGTTGGT	0.1
GGTGACACGTGATAAT	0.15
GAAGGCACGTGTAGAG	0.02
GATGTCACGTGGATCT	0.16
TCTTGCACGTGGTCGG	-0.19

Sequence	relative binding free energy [kcal/mol]
TGGGTCACGTGATACT	0.24
TTGCTCACGTGTGTTT	0.16
GTAGCCACGTGGGTTA	-0.14
AATTGCACGTGTTGAC	0.11
TTTATCACGTGTGGAA	0.13
CGATGCACGTGCGGTG	-0.13
TAGGACACGTGTAGGA	0.12
TGCGTCACGTGGCTGA	-0.02
TAGCGCACGTGATGTA	0.05
GCTTGCACGTGATGGA	0.08
CAGGGCACGTGCAGTG	-0.17
GGTGACACGTGTGCGT	0.01
TTGGTCACGTGCTAGG	0
TCATTCACGTGAGTGT	0.35
ATTTGCACGTGTGCGT	-0.07
GTCGGCACGTGGTCGT	-0.14
AAGGTCACGTGATTAA	0.29
TCGGTCACGTGGTACG	-0.06
GTCGGCACGTGTTATT	0.06
GTATGCACGTGTGGAC	0.18
TCTGTCACGTGGTGCA	0.01
GGCGACACGTGGAGGT	0.04
AGTTTCACGTGGATAG	0.24

Sequence	relative binding free energy [kcal/mol]
GTTGGCACGTGAAGGT	0.11
GTATTCACGTGTAGAT	0.35
TATATCACGTGGGCGC	0.06
TGCCGCACGTGGGTGT	-0.25
AGAGGCACGTGTGTCT	0.06
TCATTCACGTGGTCAT	0.3
TTGAGCACGTGAGCTT	0.12
TTCGTCACGTGTTGGT	0.06
TTATCCACGTGGGTAA	-0.03
TTGAGCACGTGTTATA	-0.07
GGTAGCACGTGGGTAA	-0.09
CTTTTCACGTGTGATA	0.36
ATGGGCACGTGGTGTT	-0.13
AGGTTCACGTGCTGCT	0.23
AGCTGCACGTGGGGGG	-0.12
TGGGGCACGTGGTTCA	-0.1
GTATTCACGTGGTTGG	0.26
GGTCCCACGTGTGTGG	-0.12
TCGTGCACGTGGAAGG	0.03
GAGGCCACGTGGTGGA	-0.12
TTGATCACGTGTTAAG	0.19
TACTACACGTGAGGGG	0.15
TATTTCACGTGCGTGT	0.21

Sequence	relative binding free energy [kcal/mol]
GTGTACACGTGAGGCT	0.08
GACTTCACGTGAGGTT	0.44
TCTGACACGTGTGAGT	0.07
ATTGGCACGTGTTGGT	0.05
GATCGCACGTGGGGTT	-0.06
TTGTGCACGTGGCGAA	-0.1
ACTGTCACGTGATGGT	0.28
GCGGCCACGTGGTGTT	-0.11
GGTGCCACGTGGATTA	0.06
TGTTCCACGTGCGAGG	0.11
GTGGACACGTGTGGCC	0.22
AGTGCCACGTGATGGT	-0.06
TTTGGCACGTGAAAAA	0.2
TGTAGCACGTGTAGGA	-0.07
TAGTACACGTGAATAT	0.29
TTTGGCACGTGAAGCT	0.2
TGGGTCACGTGGGAGT	0
TGTGTCACGTGTGCAT	-0.04
GGTAGCACGTGGAGAG	-0.09
CAGGTCACGTGGCCGG	0.1
TGAGTCACGTGGCTGT	0.05
AATAGCACGTGGATTG	0.05
TTATGCACGTGGAATG	0.09
